# Measurements published in PubChem BioAssay AID1240 (Sanford-Burnham Center for Chemical Genomics, 2008).
# The campaign covered roughly 50,000 compounds. About 800 (1.6%) showed an effect of 50% or more. The list shows a part of the results.
# Biological target: Bcl-2-like protein 10 (Homo sapiens) (UniProt Q9HD36)
# Assay: TR3 peptide-Bcl-B binding displacers, biochemical primary FP assay, phenotype converters (AID 1240);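 further: 0% = Bcl-B with tracer peptide and DMSO and 100% = tracer peptide lacking Bcl-B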
# Details: GST-Bcl-B / FITC-TR3 peptide fluorescence polarization; stronger effect = higher value; compound at 3.75 mg/L
# UniProt Q9HD36, sequence (Q9HD36 whole entry, looked up): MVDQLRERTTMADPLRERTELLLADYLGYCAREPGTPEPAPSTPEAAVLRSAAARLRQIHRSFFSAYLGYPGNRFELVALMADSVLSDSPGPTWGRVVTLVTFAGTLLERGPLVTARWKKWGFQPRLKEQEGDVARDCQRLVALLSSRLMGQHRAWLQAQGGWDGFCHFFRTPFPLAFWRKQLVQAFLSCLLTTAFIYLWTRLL
row,Compound,displacement [%]
1,O=[N+]([O-])c1ccc2nccc(Cl)c2c1,14
2,COc1cccc(NC(=O)c2ccccc2C(F)(F)F)c1,2
3,O=C1CC(c2ccccc2)CC2=C1C(c1cc(Br)ccc1F)Nc1ccccc1N2 (stereo unspecified),6.4
4,Cc1cc(I)ccc1NC(=O)COc1ccc(Br)cc1,6.5
5,COc1cccc(NC(=O)c2ccc(CN3CCc4ccccc4C3)cc2)c1,28.6
6,Cc1ccccc1NC(=O)C(C)NC(=O)C12CC3CC(CC(C3)C1)C2 (stereo unspecified),-4.2
7,COc1ccc(/C=N\N2CCN(c3ccccc3OC)CC2)cc1OC,-6.7
8,COc1ccc2ccccc2c1/C=C(\C#N)C(=O)NCC1CCCO1 (stereo unspecified),-13.8
9,CC1=CC(C)(C)N(C(=O)CN2C(=O)c3ccccc3C2=O)c2cc(C)ccc21,2.6
10,COc1ccc(-c2nc(-c3ccccn3)no2)cc1OC,2.4
11,CCOC(=O)c1sc(NC(=O)C2CCCCC2C(=O)O)nc1C (stereo unspecified),-8.9
12,COc1cc(C(=O)NCc2ccccc2F)cc(OC)c1OC,-2.9
13,Cc1nc(NC(=O)C2C3CCC(C3)C2C(=O)O)sc1-c1ccccc1 (stereo unspecified),-5.1
14,O=C1NN(c2ccccc2)C(=O)/C1=C/c1c(Cl)cccc1Cl,18.4
15,CC(=O)NCC(O)(c1ccc(C)cc1)c1ccc(C)cc1,-14.1
16,COc1ccc(Oc2coc3c(CN4CCOCC4)c(O)ccc3c2=O)cc1,0.1
17,CCOC(=O)C1=C(C)N(c2ccccc2)C(C)=C(C(=O)OCC)C1c1ccc([N+](=O)[O-])cc1,16.7
18,COc1ccc(Oc2ccc(Oc3ccc(OC)cc3)cc2)cc1,14.6
19,CSc1ccc(C2NC(=O)CCC2[N+](=O)[O-])cc1 (stereo unspecified),-9.5
20,CCOc1ccc(N(CC(=O)Nc2ccc(C)cc2C)S(=O)(=O)c2ccc(SC)cc2)cc1,0.6
21,COCC(O)Cn1c2ccccc2c2ccccc21 (stereo unspecified),-7.8
22,COc1ccccc1C(=O)Nc1nc(C)c(C(C)=O)s1,2.4
23,COc1ccccc1NC(=O)C1=C(C)NC(=O)NC1c1cc(C)cs1 (stereo unspecified),-1.9
24,CC1CC(C)(C)CC2(C1)NC(=S)N(c1ccccc1)N2 (stereo unspecified),-5.8

row,Compound,displacement [%]
1,Fc1ccc(CNC(=S)Nc2ccc(Cl)cc2Cl)cc1,-5.1
2,CCCC(=O)Nc1cccc(-c2nc3ccccc3s2)c1,-15.3
3,O=C(Nc1cccnc1)C1CC2CCC1C2 (stereo unspecified),14.8
4,O=C1CC(NCCCc2ccccc2)C(=O)N1c1ccc(Cl)cc1 (stereo unspecified),-3.8
5,COc1ccc(C2CC(=O)CC(=O)C2)cc1,5.9
6,Cc1ccc(C(=O)O/N=C(/N)c2nonc2N)cc1,5.6
7,COc1ccc(C(=O)CC(Nc2ccc(Br)cc2)c2ccc(F)cc2)cc1 (stereo unspecified),-18.5
8,O=C(CCCN1C(=O)/C(=C/c2ccccc2)SC1=S)Nc1ccccc1C(=O)O,2
9,O=C1N=C(N2CCCC2)S/C1=C\c1ccc([N+](=O)[O-])cc1,-22.4
10,CCOC(=O)C1=C(C)NC(=O)NC1c1cc(OC)c(OC)cc1OC (stereo unspecified),8.7
11,CCOc1ccc(NC(=O)C2=C(C)NC(=O)NC2c2ccc(Cl)cc2Cl)cc1 (stereo unspecified),-2.1
12,CCOC(=O)c1cn(-c2ccc(F)c(F)c2)c2c(F)c(F)c(F)c(F)c2c1=O,-21.1
13,N/C(=N\OC(=O)c1ccc(Br)cc1)c1ccncc1,5.1
14,O=C1c2cccc3cccc(c23)C(=O)N1CCN1CCN(S(=O)(=O)c2ccc(Cl)cc2)CC1,-8.5
15,O=c1[nH]c(=O)n(-c2ccccc2Cl)c(O)c1C=Nc1ccc2c(c1)OCO2,7.6
16,CC1(C)CC(=O)c2cc(-c3ccccc3)n(CC(=O)OCN3C(=O)c4ccccc4C3=O)c2C1,7.1
17,COc1cc([N+](=O)[O-])cc(/C=C2/C(=O)NC(=O)N(c3ccc(C)cc3)C2=O)c1O,9.4
18,Cc1[nH]n(-c2ccccc2)c(=O)c1C=Nc1cccc(Cl)c1,-3
19,CC(=O)N1c2ccccc2CCc2ccc(N)cc21,-2
20,Cc1ccc(-n2nc3cc(C)c(NC(=O)c4oc5ccccc5c4C)cc3n2)cc1,14
21,COc1ccc(C2=C/C(=C3\OC(=O)c4ccccc43)C(=O)O2)cc1OC,-48.1
22,O=C(O)c1ccccc1C(=O)OCCCC(F)(F)C(F)(F)F,-7.3
23,O=C1S/C(=C/c2ccc(Cl)cc2Cl)C(=O)N1CN1CCCCC1,12.4
24,S=C(NCCC(c1ccccc1)c1ccccc1)Nc1ccc(Cl)cc1,-12.3

row,Compound,displacement [%]
1,O=C(Nc1ccc(Sc2ccccc2[N+](=O)[O-])cc1)c1ccccc1,-13.5
2,COc1ccc(NC(=O)c2cc([N+](=O)[O-])ccc2N2CCOCC2)cc1,-1.7
3,Cc1ccc(/C=C/C(=O)N2CCN(c3ccccc3)CC2)o1,3.6
4,COc1ccc(CNC(=O)CSc2ccccn2)cc1,5.6
5,COc1ccc(CSc2ncn[nH]2)cc1,4.6
6,C=CCNC(=S)N1CCN(CCNC2=CC(=O)CC(C)(C)C2)CC1,-10.1
7,COC(=O)c1ccc(C(=O)OC)c(NS(=O)(=O)c2ccc(NC(C)=O)cc2)c1,8.6
8,CC1(C)C(c2ccccc2)=NC(c2ccc(F)cc2)N1O (stereo unspecified),0.3
9,Cc1c(Cl)cccc1NC(=O)c1cc2nc(-c3cccs3)cc(C(F)(F)F)n2n1,12.7
10,COc1ccc(S(=O)(=O)N(CC(=O)NCc2ccccc2)Cc2ccccc2)cc1,-3.2
11,Cc1cc(OCC(N)=O)ccc1Cl,8.2
12,COc1ccccc1/C=C1\SC(=S)N(NC(=O)c2ccccc2O)C1=O,0.3
13,O=[N+]([O-])c1cc(-c2nnc(-c3ccc(Br)o3)o2)cc([N+](=O)[O-])c1,-9.2
14,CCOCCOC(=O)c1ccc(NC(=O)COc2ccc(C)cc2C(C)(C)C)cc1,-7.9
15,COc1ccc(C(=O)NNC2=Nc3cccc4cccc2c34)cc1,-17.1
16,C=CCc1ccccc1OCC(=O)N/N=C/c1cccc(I)c1,0
17,COc1ccc2c(c1OC)C(=O)OC2Nc1cccc(F)c1 (stereo unspecified),-0.4
18,Cc1cccc(NC(=O)COc2ccccc2)n1,13.2
19,O=C1C=CC(=O)N1c1ccc(Cc2ccc(N3C(=O)C=CC3=O)c(Cl)c2)cc1Cl,0.5
20,CCCCc1ccc(NC(=O)c2ccc([N+](=O)[O-])o2)cc1,-6.4
21,COc1ccc(OC(C)C(=O)Nc2ccccc2Cl)cc1 (stereo unspecified),9.5
22,O=C(c1ccco1)N1CCN(C2CCC(c3ccccc3)CC2)CC1 (stereo unspecified),0.3
23,C=CCOCCN(CCOCC=C)C1=NS(=O)(=O)c2cc([N+](=O)[O-])ccc21,5
